Data from the supplement of paper PMC4166925.
± gives the standard deviation of the averaged measurements. Whole data set: some 33,000 sequences, median “E-score (dimensionless, -0.5 to 0.5)” near -0.046, cut for the highest 2% near 0.36. The list shows a part of the results.

The sequences below were run on T1, SpTbr T-box DNA-binding domain (GST fusion) (assay: PBM E-score of 8-mer (E-score (dimensionless, -0.5 to 0.5)); Tbr is Tbrain of the sea star Patiria miniata (Pm) or the sea urchin Strongylocentrotus purpuratus (Sp); higher = stronger binding preference; most listed sequences are background and not binding sites). Conditions: the construct has about 5 more residues each side.
T1 sequence: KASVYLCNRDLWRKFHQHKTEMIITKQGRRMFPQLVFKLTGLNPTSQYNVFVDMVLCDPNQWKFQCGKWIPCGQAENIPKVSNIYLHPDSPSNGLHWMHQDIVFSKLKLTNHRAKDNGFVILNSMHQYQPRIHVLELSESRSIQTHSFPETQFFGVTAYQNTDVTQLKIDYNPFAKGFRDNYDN
Procedure, shortened: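 Universal Agilent oligonucleotide arrays, made double-stranded by primer extension, were incubated with 200 nM GST-fused Tbr T-box DNA-binding domain in PBS (pH 7.5). The protein was expressed in BL21 E. coli at 20 °C and purified by glutathione affinity chromatography. After scanning and quantification, the Universal PBM Analysis Suite assigned an enrichment E-score to each ungapped 8-mer, averaged over duplicate arrays.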

Sequence	PBM E-score of 8-mer
AGGGAGCA	0.0315 ± 0.006
AGTGCGCG	0.23 ± 0.071
GTGATCAA	0.144 ± 0.022
CTAATGAG	-0.232 ± 0.013
ATGTTACC	-0.153 ± 0.019
CCGCACGA	-0.156 ± 0.12
ATAGCACG	0.34 ± 0.0094
CCCATGAC	-0.0994 ± 0.037
AAGGTATT	0.138 ± 0.056
AAAACGTT	-0.173 ± 0.059
ACCGGATA	-0.157 ± 0.023
CAATAGTC	0.102 ± 0.11
GTGGACTA	-0.191 ± 0.017
GGCAGGCA	-0.206 ± 0.022
CCTCAAGC	-0.0512 ± 0.024
AAGCGGTG	-0.1161 ± 0.00078
CAAATAAA	-0.151 ± 0.0077
ACGCGCCT	0.188 ± 0.036
GTGCGGGA	0.166 ± 0.0064
AAATTGGC	0.0777 ± 0.0011
AACGGCTG	-0.102 ± 0.0077
CCATACAC	-0.0629 ± 0.0037
AGCGCGAG	0.306 ± 0.017
AAGCCACG	0.012 ± 0.0057
CGAGATAG	-0.0605 ± 0.0028

Sequence	PBM E-score of 8-mer
TAATCCGA	-0.195 ± 0.077
CTTAAAAG	-0.0743 ± 0.042
ATTCGCAG	0.33 ± 0.013
ACAAGGAG	-0.0116 ± 0.076
AAGTTAGA	-0.186 ± 0.08
ACAAGATG	-0.0145 ± 0.022
CCCTCCAA	-0.0153 ± 0.012
ACTATCTG	0.163 ± 0.0089
AAGTGCAT	-0.097 ± 0.032
AGGCTCAT	-0.195 ± 0.048
ACCAGAAA	0.106 ± 0.073
ACAGAAAT	-0.11 ± 0.078
TCGAAGAA	-0.222 ± 0.062
ACCTGTAA	0.154 ± 0.021
CCCAGTAA	-0.178 ± 0.0079
GCGTTAAC	0.374 ± 0.011
CTTTATGC	-0.25 ± 0.0054
ACATCGAG	-0.111 ± 0.071
TTGTAAAA	-0.0388 ± 0.032
ATTGGATC	-0.059 ± 0.022
CGGGAGGC	0.0492 ± 0.053
TGGTACAA	-0.124 ± 0.034
ACTAATCC	-0.0916 ± 0.045
TATTATGA	0.101 ± 0.05
GCCTGCCC	-0.146 ± 0.058

Sequence	PBM E-score of 8-mer
AACCGCGG	0.091 ± 0.053
CTGAGTTA	-0.136 ± 0.051
AAGCGCCT	-0.0678 ± 0.053
GAGGGCCC	-0.115 ± 0.015
CACTTTGA	0.285 ± 0.038
CGAATTTA	-0.0218 ± 0.072
GCAATGTA	-0.0606 ± 0.052
ACCCCTGC	-0.0249 ± 0.023
TAGGCATA	-0.0515 ± 0.033
GCATTGGC	0.024 ± 0.06
AGAGCGAT	-0.0402 ± 0.075
ATCTCAGG	-0.132 ± 0.0044
AGCCAACA	0.0691 ± 0.042
ACCAAAGC	-0.0584 ± 0.078
AGGGTGGG	0.0275 ± 0.071
ACGCGTGC	0.149 ± 0.066
CATGTTAG	0.00386 ± 0.017
ATGATTTG	0.0278 ± 0.096
AGCCGGCA	0.0579 ± 0.0021
GCACGTCA	0.274 ± 0.0053
CCTACAAC	0.176 ± 0.055
ATCACGTA	0.00826 ± 0.0074
GCCACACC	0.421 ± 0.036
ATTTGTAG	-0.0955 ± 0.049
GCGATCAC	0.321 ± 0.032

Sequence	PBM E-score of 8-mer
AAAAATAT	-0.0931 ± 0.041
GGCTCAAA	-0.176 ± 0.096
CCAACCTC	0.0647 ± 0.014
ACTCGCCC	-0.231 ± 0.026
AAGAGCTA	-0.167 ± 0.11
CTTGGCGA	0.0995 ± 0.087
AGACCAAC	-0.0505 ± 0.056
CAAGGATG	-0.266 ± 0.033
CATAGGCC	-0.155 ± 0.0077
CTACATAA	-0.145 ± 0.0065
GTTGCAAC	0.0966 ± 0.046
TATAACCA	-0.114 ± 0.039
CTAAAGTC	-0.0847 ± 0.033
CCTGGAGC	-0.16 ± 0.026
ACTATTAC	-0.149 ± 0.051
ACGGCCGG	-0.0239 ± 0.018
TAAGCGAA	-0.0797 ± 0.053
AATCTTGC	-0.137 ± 0.032
ACATTTGA	0.0665 ± 0.045
ACACGTTC	0.2806 ± 0.0017
TGACATCA	0.0637 ± 0.079
GTCAGCAA	-0.00252 ± 0.012
ACCATCGA	-0.00463 ± 0.029
AGCCATTA	-0.133 ± 0.0029
AAGAAACC	-0.104 ± 0.041

Sequence	PBM E-score of 8-mer
TAATTAGA	-0.212 ± 0.032
AATGCCGG	-0.117 ± 0.08
GGACCCAA	-0.182 ± 0.039
GCTATTCA	0.115 ± 0.0044
TAACCGTA	-0.0947 ± 0.051
ATCCAGGG	0.00773 ± 0.033
AGTCCGGG	-0.21 ± 0.011
CGTCGCCA	0.164 ± 0.015
CTGCCTAC	-0.1832 ± 0.0002
GCCAGCTA	-0.0677 ± 0.026
CGGGTGAA	-0.3489 ± 0.0032
GGCCGGAC	-0.161 ± 0.022
CCCGCGCG	0.107 ± 0.071
GAGAGAAA	-0.0608 ± 0.087
GACTTTGC	-0.105 ± 0.0056
AGTATCTC	-0.212 ± 0.029
AAAACATA	-0.133 ± 0.027
GACGGATC	-0.122 ± 0.04
AATACGTG	0.0324 ± 0.069
ATTGATTG	0.031 ± 0.019
GCTTTAAC	-0.0969 ± 0.078
ATAAATTG	-0.0747 ± 0.066
CCATTCCC	-0.132 ± 0.05
CGTGAACG	0.361 ± 0.02
CTAGGATA	-0.0736 ± 0.024

Sequence	PBM E-score of 8-mer
ACGCTATG	-0.00543 ± 0.0011
AAAACGTA	-0.0702 ± 0.047
CGTTCACC	0.0843 ± 0.012
GAGTGTCC	0.0603 ± 0.01
AATAACCT	-0.18 ± 0.022
AGGCATAC	-0.154 ± 0.03
ACATTCAA	-0.146 ± 0.044
AGCTTACC	-0.274 ± 0.031
CCATCATA	-0.216 ± 0.073
GAGGTGAC	0.429 ± 0.018
CGGAATGC	-0.214 ± 0.051
ACGTCACG	0.217 ± 0.057
AATGGCCC	-0.219 ± 0.018
GAGACAAC	0.0497 ± 0.032
AAAGCAGT	-0.167 ± 0.049
ACTCAGAA	-0.0477 ± 0.035
AGGTTAAT	-0.141 ± 0.089
CTTATCTC	0.0423 ± 0.024
AACGAGGG	-0.217 ± 0.083
CAGACCTG	-0.0842 ± 0.0016
AAGGTGCG	0.4522 ± 0.0011
CCGGGACA	-0.219 ± 0.052
GCTGTACC	-0.15 ± 0.019
AGGATTAG	-0.233 ± 0.0027
ACTCTCTG	-0.0555 ± 0.053

Sequence	PBM E-score of 8-mer
ATTTGTTC	0.116 ± 0.037
CGCACGCC	0.27 ± 0.06
GGTCGTAA	-0.112 ± 0.04
GGCCCGAC	-0.0521 ± 0.057
AACTCTTA	-0.427 ± 0.0093
GACATCGA	-0.0335 ± 0.038
CGCACCGC	0.228 ± 0.031
ATCGAGGA	-0.247 ± 0.017
ATGTATTA	-0.0951 ± 0.0048
TACTCGCA	0.119 ± 0.013
AAGCTACC	-0.178 ± 0.013
ACACTCAA	0.258 ± 0.016
GTTACGGA	-0.151 ± 0.03
ACCTGCCC	0.0973 ± 0.016
AATGCCAA	0.0663 ± 0.054
AACGGTCC	0.0448 ± 0.0094
AAACAAGC	-0.06408 ± 0.0003
GCTATACC	-0.0559 ± 0.043
AGCACCTG	0.398 ± 0.0042
CGCTCACC	0.0959 ± 0.018
ATCAGCAA	-0.14 ± 0.0038
AAAGACCC	-0.269 ± 0.046
ATGCTTGA	-0.0555 ± 0.026
ATGCGCGA	0.294 ± 0.02
TCGATCCA	0.0226 ± 0.076

Sequence	PBM E-score of 8-mer
ACTGGAGA	-0.123 ± 0.052
ATCACAAG	0.2978 ± 0.001
AGAGGACT	-0.3 ± 0.017
AGGTTTAC	-0.0845 ± 0.0097
ATCCGATA	-0.222 ± 0.0056
GGGTATCA	-0.108 ± 0.13
CACGACAA	0.176 ± 0.012
CTCCCCTC	-0.0801 ± 0.0021
AAGTACAA	-0.0909 ± 0.047
CTCTTTTC	-0.0957 ± 0.099
CTGAGAAA	-0.0469 ± 0.13
GACGTGTA	0.137 ± 0.015
AACACGAA	0.109 ± 0.027
CTCCCGGA	-0.121 ± 0.018
AAGATGCG	0.0549 ± 0.051
GAAGGCTA	-0.105 ± 0.0052
CTATGAAC	0.0185 ± 0.031
GCTGAAAA	-0.078 ± 0.0015
AACACCAC	0.344 ± 0.015
AGTAGTCA	-0.107 ± 0.071
CGGATCCA	-0.0207 ± 0.011
GTAGGCTA	-0.0979 ± 0.081
ATACAACA	0.0155 ± 0.037
ACAAACGG	-0.0454 ± 0.039
AGAGCTCC	-0.255 ± 0.041

Sequence	PBM E-score of 8-mer
ACTCACTA	0.0837 ± 0.051
ATCGGCAG	-0.191 ± 0.047
CTGTGAAC	0.4126 ± 0.00049
CTTTAGCC	-0.161 ± 0.05
GGCCCCTA	-0.233 ± 0.047
CATCGTGA	0.0143 ± 0.023
ATAGTGGA	0.0285 ± 0.029
CGTTCGTC	0.00445 ± 0.077
GACAACGA	0.0761 ± 0.0075
ATCAATAC	0.047 ± 0.0072
GAGATGCC	-0.11 ± 0.0057
CCCTTATC	-0.0336 ± 0.004
TAGGTCGA	-0.142 ± 0.08
AAGGACGC	-0.161 ± 0.065
ATGAAAAA	-0.192 ± 0.0027
AGTTTCAG	-0.093 ± 0.014
ACCGGTCT	-0.2154 ± 0.0004
ACGGCTAC	0.0278 ± 0.016
CAGTTAAG	-0.0118 ± 0.015
